Data taken from publication PMC10726135.
The list shows a part of the results. At the low end of the ranking the order means little. Measured with an extract: partners may take part in the binding.

Each sequence was assayed against T1, HNF4alpha8 (COS-7 nuclear extract) (UniProt P41235-5) (assay: protein-binding microarray). Settings: COS-7 nuclear extract on double-stranded Agilent 4x180k PBM; binding buffer, salt, pH and temperature not given; high values mean tight binding; double strand, one strand shown; sequences stand for … in …GCCTAGGGAGATTAGAGTATCGGTCGA.
T1 sequence: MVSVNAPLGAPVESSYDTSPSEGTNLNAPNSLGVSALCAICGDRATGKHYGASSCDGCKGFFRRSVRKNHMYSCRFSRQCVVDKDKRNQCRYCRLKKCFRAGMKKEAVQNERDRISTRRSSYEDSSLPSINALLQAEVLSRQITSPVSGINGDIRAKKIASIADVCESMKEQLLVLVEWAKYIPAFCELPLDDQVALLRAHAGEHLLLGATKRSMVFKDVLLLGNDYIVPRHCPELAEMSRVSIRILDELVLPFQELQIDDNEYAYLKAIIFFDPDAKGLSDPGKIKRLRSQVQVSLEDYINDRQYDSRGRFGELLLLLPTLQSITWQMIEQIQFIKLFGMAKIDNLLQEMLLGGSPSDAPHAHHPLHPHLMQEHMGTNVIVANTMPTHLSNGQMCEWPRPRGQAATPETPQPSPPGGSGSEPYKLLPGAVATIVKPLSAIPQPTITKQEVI

| Sequence | binding signal (log2 normalized intensity) |
| --- | --- |
| TTTTTTCCCCTCCCTCAGCTCTGCCCAGAC | 4.51 |
| CTGTAGAAAGACTAAAGTTCAGGAGGGAGG | 0.979 |
| GTCTTCTGTTTGCAAATGGATGAATTTTAT | 1.14 |
| TTTGTCCCAAGGAGAATTTCACAAAGGGCA | 1.85 |
| GAATCCCAGTTCTGATACACTCGCCGTGTG | -0.814 |
| AAAGGGAATAACCTTTGAGCTGAGTTCCAC | 4.71 |
| GTCAGGCTGCTCAGCTGCCTAGAGGCCTGG | -1.35 |
| AGTTTTTCTTGCTCTTTACCCCTGCAAGGA | 2.66 |
| TGGACAACTGTACTTTGGACTGGGGACCTG | 6.02 |
| AGTTGCTCAGTGTTCCACAGCAAGTAAATT | -1.2 |
| TGGGCTGGACTAAGAGTAGCGGTTTCTGCT | -1.35 |
| AGTTGCCTGATGACAACTGAATGTGACCTT | 5.02 |
| CAACCCTTGACCCCAGTAACAAAGGAAAGA | 3.82 |
| ATTACATGGAAGCCTTACCAGTAGGACCAC | -1.27 |
| GGGAAGCTGTGTGAAGTGACTTGCCCTGTT | 2.3 |
| CTGCCTTTCCCAGATGGATTGATAGACTTA | 0.78 |
| ATCTTATCAGAAACACACCCTTGGGGCTGA | -1.3 |
| CACACACACACACATTGCAGTATGCCCCCC | 5.33 |
| CCGGGCGGCAGCACAAGGCGGTAGCCATGG | -1.25 |
| GACCCCATACTTCAGCAATTTCTTAGTAAA | 1.38 |
| GAGTACACACTGTAAAATTTCATGGCATTG | -0.933 |
| GGGTCACGTGGGGCCGGTACAAAAGGCCAA | 2.14 |
| TTCAAAGGAGGAGGCCTAGGCAGTCCACAG | -1.31 |
| AGACATGGACTCTGGGATCTCAGGGTGGAC | 2.17 |
| CTCGTGGCCTCCACACATTGCCACACTATT | -0.755 |

| Sequence | binding signal (log2 normalized intensity) |
| --- | --- |
| AAAAGGGAGTTTTCTGCTCTCAACTAGAGA | -1.22 |
| CTGCTCCCCGCCTTGGCCTCCCGGAGAGGC | 1.03 |
| GAAAAAGGTAAGGAGATAAGGTGATAAGGG | -1.36 |
| TGCCCTATGTCCTCCAGCTCTTGGGGAACA | 0.218 |
| GGGACAAAGTTCATCTGGGCTTTAGGTTTG | 3.11 |
| CAAAGTGTGATTAACAAGCATTTTGTTCCC | 0.598 |
| GTCCAGTGACGGGTACAAGGAGGCCCCAAC | -0.322 |
| AACAGTGAATGTTTCGTAATATTTAGGTGT | 1.48 |
| CAACAGGTCCAAGGTTCAGAGCCTGGCTGG | 3.01 |
| GAGGAAAAGCTGTCTACAAACACAGAAGTG | -1.29 |
| CAAGGACTGAAAGAACACAGCGCAGCACAC | -1.32 |
| CAGGACGCTACCCGCTTGGCGTAGGCAACT | -1.3 |
| CCGCCTTCACTCCCCTGACAGCATGTTCGG | 0.533 |
| TCCTGCTGTTCCTTCAACACACAAGGCCCA | 0.459 |
| TAGCACTCTGGACTCTGAATCCAGCGATCC | 2.56 |
| ACAACCTACTCTTTCTCTGATGTCTGCTGA | 0.146 |
| AGTCCTTCTAAAGCAAATTTATAGGCACTA | -1.46 |
| TTAACCTCTATTGACCTTCTTATTTGGAGA | 2.41 |
| GTAACACAGAGGCAGTGGGACAATGAAGCC | -1.29 |
| TCTTTGTTCTAGTAAGGCCTTCAAATGATT | 0.522 |
| GTCACTCAGCCCGAGAAACGATGTGAGGTC | 1.51 |
| ATACTTTCAGCTAGCTGAGTGAGTAGGTTC | 0.882 |
| CTATTATGCCTTGACTTCAAATCATACTGA | -0.17 |
| CTGCCTCTCTGTGGAATCCTGCTAGCAGCT | -1.19 |
| GCCCGTGTGGGCGGGTGCAGCTTCCACCTG | -1.35 |

| Sequence | binding signal (log2 normalized intensity) |
| --- | --- |
| TGGCGTATGCAGCAGGGCAGCAGCCTGACC | 0.823 |
| CTTTCTCTGTGTGTATGTGTGTGTACACAT | 2.75 |
| TCTTGCAAACATTACTGGCACACAGCAGAT | -1.35 |
| GAAATGGTGGACTTTGTAGCTCAAACAGTC | 3.96 |
| AATCCCCTTCAAGTCTGAGATGAAGAGGCC | 0.198 |
| ATGGATTGGGGGCCATGTCTCAGCCCAAGA | -1.29 |
| GGCAGGAAAGGGCCTCTCAGGTCAGGGAAG | -1.08 |
| CTTCAGATAGCCTTTGCCTCCACCTTCTCT | 0.459 |
| AACAACCCTTCGCTAGAGCAAATACAGCAC | -1.26 |
| TCTGCCTAGGCATTTGGCTGTCTCAGTGGG | 0.378 |
| GTGTAACATTCATCTGAGACTAACTGCATT | -1.19 |
| GGGTGCAAACTCACCTGGAGAAGCAGAAGC | -1.39 |
| CCTGTCCAAAGGTCATCTGTCACTCTAGAT | 6.02 |
| GTATATTCCCTTTGTATGGCAGGGGTTAAC | 2.38 |
| AGGAGACAGGCTTTGAGCATCGCTGGACTC | 2.93 |
| ACGAGACGGTGTCCCTGGCCAATCCCAGGG | -1.36 |
| GGCTATACAATTCCAGCAAGGATGGGGGCA | 0.827 |
| AGCAAAGGTCATGCATAGAAGTATGTCTGG | 1.29 |
| TAGACAGCTTGAGAAACAGGGGCTTAAACC | -1.4 |
| AAGAGCTGAGGAAGTGCTGACCTTTGGTCT | 7.88 |
| GGCGGCGGCCTCTGGGAAATGTAGTTCCGG | -0.689 |
| GGTCAACACAATCTGATAGTTGATTGATTG | 0.975 |
| CAGGCAGAGGGTTAACCCCTATTAACCAAA | 0.886 |
